The source of these data is US20260207767A1 (ANAVEON, published 2026).

For orientation: EC50 means the concentration that produces a half-maximal response. Read a high EC50 as a need for much substance. The Kd is the concentration at which binding is half-saturated.

The target in assay [1] is anti-IL-2 antibody clone 5344. Kind of assay: ELISA on clone 5344. For orientation: ELISA stands for enzyme-linked immunosorbent assay.
Assay [2] has as its target T1, trimeric IL-2 receptor (CD25/CD122/CD132) on HEK-Blue IL-2 reporter cells (UniProt P01589 22-272; P14784 27-551; P31785 23-369, limits assumed).
T1 sequence (looked up) 1: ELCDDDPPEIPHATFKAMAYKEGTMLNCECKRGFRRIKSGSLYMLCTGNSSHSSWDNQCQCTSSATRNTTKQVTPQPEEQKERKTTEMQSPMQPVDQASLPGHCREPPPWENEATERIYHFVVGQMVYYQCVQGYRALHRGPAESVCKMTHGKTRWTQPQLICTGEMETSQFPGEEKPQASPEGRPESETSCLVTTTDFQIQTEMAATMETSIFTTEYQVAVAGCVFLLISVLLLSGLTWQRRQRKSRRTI
T1 sequence (looked up) 2: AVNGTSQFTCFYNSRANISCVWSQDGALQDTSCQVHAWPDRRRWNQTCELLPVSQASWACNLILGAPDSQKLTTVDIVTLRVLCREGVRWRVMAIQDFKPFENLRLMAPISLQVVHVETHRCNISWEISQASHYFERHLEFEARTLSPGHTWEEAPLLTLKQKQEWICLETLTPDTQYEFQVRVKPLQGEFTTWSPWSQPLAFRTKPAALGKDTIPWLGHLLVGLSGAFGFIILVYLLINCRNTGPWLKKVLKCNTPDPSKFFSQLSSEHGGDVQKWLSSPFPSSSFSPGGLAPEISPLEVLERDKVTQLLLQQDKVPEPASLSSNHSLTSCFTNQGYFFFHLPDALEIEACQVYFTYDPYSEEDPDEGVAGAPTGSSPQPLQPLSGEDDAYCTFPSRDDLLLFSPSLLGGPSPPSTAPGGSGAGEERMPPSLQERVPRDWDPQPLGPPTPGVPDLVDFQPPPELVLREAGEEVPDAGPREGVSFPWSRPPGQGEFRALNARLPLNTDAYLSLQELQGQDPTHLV
T1 sequence (looked up) 3: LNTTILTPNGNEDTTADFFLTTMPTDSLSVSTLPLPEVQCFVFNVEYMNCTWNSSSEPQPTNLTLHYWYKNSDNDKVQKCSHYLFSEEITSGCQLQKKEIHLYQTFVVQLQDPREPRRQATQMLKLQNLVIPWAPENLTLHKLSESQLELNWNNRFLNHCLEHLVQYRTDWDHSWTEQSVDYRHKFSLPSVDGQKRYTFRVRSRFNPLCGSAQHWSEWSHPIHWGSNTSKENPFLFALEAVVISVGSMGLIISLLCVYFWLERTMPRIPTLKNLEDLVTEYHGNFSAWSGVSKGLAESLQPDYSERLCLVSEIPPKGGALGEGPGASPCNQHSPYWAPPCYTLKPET
Kind of assay: cell-based or functional assay.

The target of assay [3] is T2, high affinity trimeric IL-2R on CD4+CD25+FoxP3+ Treg cells of murine splenocytes (mouse, UniProt P01590 22-268; P16297 27-539; P34902 23-369).
T2 sequence (looked up) 1: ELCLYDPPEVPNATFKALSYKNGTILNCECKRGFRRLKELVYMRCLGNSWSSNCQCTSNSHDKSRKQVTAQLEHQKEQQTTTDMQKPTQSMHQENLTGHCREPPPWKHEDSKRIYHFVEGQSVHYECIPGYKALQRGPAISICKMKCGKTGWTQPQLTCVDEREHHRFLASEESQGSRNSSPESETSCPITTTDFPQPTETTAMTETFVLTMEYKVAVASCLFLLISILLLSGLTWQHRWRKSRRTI
T2 sequence (looked up) 2: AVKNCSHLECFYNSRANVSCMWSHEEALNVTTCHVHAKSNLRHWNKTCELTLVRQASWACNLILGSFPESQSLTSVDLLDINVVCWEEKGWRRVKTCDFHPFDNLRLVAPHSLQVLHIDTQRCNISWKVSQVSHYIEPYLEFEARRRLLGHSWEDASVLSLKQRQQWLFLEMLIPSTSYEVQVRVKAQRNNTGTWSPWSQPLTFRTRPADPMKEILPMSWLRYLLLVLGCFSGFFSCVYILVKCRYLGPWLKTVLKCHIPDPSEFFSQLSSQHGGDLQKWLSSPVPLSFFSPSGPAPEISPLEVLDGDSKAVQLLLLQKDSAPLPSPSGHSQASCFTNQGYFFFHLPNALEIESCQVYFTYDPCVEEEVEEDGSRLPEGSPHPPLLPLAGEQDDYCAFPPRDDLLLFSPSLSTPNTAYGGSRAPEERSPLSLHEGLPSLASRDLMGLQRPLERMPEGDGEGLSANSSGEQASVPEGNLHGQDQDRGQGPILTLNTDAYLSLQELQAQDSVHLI
T2 sequence (looked up) 3: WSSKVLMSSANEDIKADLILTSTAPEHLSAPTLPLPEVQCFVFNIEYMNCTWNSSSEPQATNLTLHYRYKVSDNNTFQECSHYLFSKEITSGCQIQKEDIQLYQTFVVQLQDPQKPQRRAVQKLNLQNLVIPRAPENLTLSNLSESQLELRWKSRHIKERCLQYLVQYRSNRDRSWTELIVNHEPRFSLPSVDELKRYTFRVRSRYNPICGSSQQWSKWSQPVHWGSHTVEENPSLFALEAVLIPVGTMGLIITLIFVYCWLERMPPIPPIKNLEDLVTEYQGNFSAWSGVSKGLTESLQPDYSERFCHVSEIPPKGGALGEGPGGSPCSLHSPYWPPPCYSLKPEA
As to the kind of experiment: cell-based or functional assay.

In assay [4] the target is IL-2R on NK cells and CD8+ T cells of murine splenocytes (C57BL/6) (mouse). As to the kind of experiment: cell-based or functional assay.
Assay [5] deals with T3, His-tagged recombinant CD25 (UniProt P01589 22-213, limits assumed).
T3 construct: also called IL-2R alpha chain
T3 sequence (looked up): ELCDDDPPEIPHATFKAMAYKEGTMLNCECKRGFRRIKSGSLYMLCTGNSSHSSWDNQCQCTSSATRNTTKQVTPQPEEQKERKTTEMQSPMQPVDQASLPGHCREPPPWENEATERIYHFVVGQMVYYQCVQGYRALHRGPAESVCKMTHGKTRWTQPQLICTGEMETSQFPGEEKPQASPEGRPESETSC
Kind of assay: SPR, CD25 captured. A general note: SPR reads the build-up and loss of mass on a sensor chip optically.

B1: LPT269 (other)
heavy: EVQLVQSGAEVKKPGESLKISCKGSGYSFTNFYIHWVRQAPGQRLEWMGSIYPNYGDTAYNQKFKDRFVFSLDTSVSTAYLQISSLKAEDTAVYYCARGYSYAMDYWGQGTTVTVSSASTKGPSVFPLAPSSKSTSGGTAALGCLVKDYFPEPVTVSWNSGALTSGVHTFPAVLQSSGLYSLSSVVTVPSSSLGTQTYICNVNHKPSNTKVDKRV[not shown - human IgG1 Fc with changes]
light: DIQMTQSPSSVSASVGDRVTITCSASQGISGNFHLRPRDLISNINVIVLELKGSETTFMCEYADETATIVEFLNRWITFSQSIISTLTPTSSSTKKTQLQLEHLLLDLQMILNGINNYKNPKLTRMLTFKFYMPKKATELKHLQCLEEELKPLEEVLNLAQSKGDLNWYQQKPGKAPKLLIYHTSSLHSGVPSRFSGSGSGTDFTLTISSLQPEDFATYYCQYYSKDLLTFGGGTKLEIKRTVAAPSVFIFPPSDEQLKSGTASVVCLLNNFYPREAKVQWKVDNALQSGNSQESVTEQDSKDSTYSLSSTLTLSKADYEKHKVYACEVTHQGLSSPVTKSFNRGEC
notes: Antibody C IgG with IL-2CP in CDR-L1
Take B1: the EC50 in assay [1] was found to be 240 pM. Moreover, the “EC50, HEK Blue IL-2 reporter assay (SEAP)” value (“EC50 … (SEAP)” below) in assay [2] stood at 7.35 pM. Also, in assay [3], the “EC50 Treg cells (nM), pSTAT5” value is less than 0.016 nM. Besides, in assay [4], the “EC50 CD8 cells (nM), pSTAT5” value was determined as 32 nM and the “EC50 NK cells (nM), pSTAT5” value stood at 1.7 nM. The Kd in assay [5] was 120 pM.

B2: VBE401 (other)
heavy: EVQLVQSGAEVKKPGESLKISCKGSGYAFTNYLIEWVRQMPGKGLEWMGVINPGSGGTNYNEKFKGQVTISADKSISTAYLQWSSLKASDTAMYYCARWRGEGGGFHLRPRDLISNINVIVLELKGSETTFMCEYADETATIVEFLNRWITFSQSIISTLTPTSSSTKKTQLQLEHLLLDLQMILNGINNYKNPKLTRMLTFKFYMPKKATELKHLQCLEEELKPLEEVLNLAQSKGGGGYYAYFDVWGQGTTVTVSSASTKGPSVFPLAPSSKSTSGGTAALGCLVKDYFPEPVTVSWNSGALTSGVHTFPAVLQSSGLYSLSSVVTVPSSSLGTQTYICNVNHKPSNTKVDKRV[not shown - human IgG1 Fc with changes]
light: AIRLTQSPSSFSASTGDRVTITCKASQSVDYQGDSYMNWYQQKPGKAPKLLIYAASNLESGVPSRFSGSGSGTDFTLTISSLQSEDFATYYCQQSNEDPYTFGGGTKVEIKRTVAAPSVFIFPPSDEQLKSGTASVVCLLNNFYPREAKVQWKVDNALQSGNSQESVTEQDSKDSTYSLSSTLTLSKADYEKHKVYACEVTHQGLSSPVTKSFNRGEC
As to B2, the “EC50 … (SEAP)” value in assay [2] turned out to be 4.35 pM. Besides, in assay [3], the “EC50 Treg cells (nM), pSTAT5” value was found to be 2.6 nM. In assay [4], the “EC50 CD8 cells (nM), pSTAT5” value came to 32.2 nM and the “EC50 NK cells (nM), pSTAT5” value was determined as 34.3 nM. Also, in assay [5], the binding result was “no binding (tested: 500 nM)”.

B3: LIZ707 (other)
heavy: EVQLVQSGAEVKKPGESLKISCKGSGYAFTNYLIEWVRQMPGKGLEWMGVINPGGGFYMPKKATELKHLQCLEEELKPLEEVLNLAQSKNFHLRPRDLISNINVIVLELKGSETTFMCEYADETATIVEFLNRWITFCQSIISTLTPTSSSTKKTQLQLEHLLLDLQMILNGINNYKNPKLTRMLTFKGGGSGGTNYNEKFKGQVTISADKSISTAYLQWSSLKASDTAMYYCARWRGEGYYAYFDVWGQGTTVTVSSASTKGPSVFPLAPSSKSTSGGTAALGCLVKDYFPEPVTVSWNSGALTSGVHTFPAVLQSSGLYSLSSVVTVPSSSLGTQTYICNVNHKPSNTKVDKRV[not shown - human IgG1 Fc with changes]
light: B2 light
notes: also called L1707
In the case of B3, the “EC50 … (SEAP)” value in assay [2] is 8.35 pM. Further, the “EC50 Treg cells (nM), pSTAT5” value in assay [3] is 3.8 nM. In assay [4], the “EC50 CD8 cells (nM), pSTAT5” value was 12.5 nM and the “EC50 NK cells (nM), pSTAT5” value is 5.3 nM. Besides, the binding result in assay [5] was “no binding (tested: 500 nM)”.
